According to PubChem BioAssay AID504466 (National Center for Advancing Translational Sciences (NCATS), 2011):
Out of some 330,000 compounds screened, about 4,200 (1.3%) were called active. Inconclusive means that the source gave no clear call. Such entries were picked first, then a sample of the others. The call rests on the fitted dose curve; in most records, active means well fitted activation curve with a large enough effect; inconclusive means small, poorly fitted or top-dose-only effect; inactive means no such curve, though single readings can be large or run the other way. Where the call is inconclusive, the potency comes from a doubtful curve fit.

Test: qHTS screen for small molecules that induce genotoxicity in human embryonic kidney (HEK293T) cells expressing luciferase-tagged ELG1; further: nearly all actives have a fitted effect of over 60% in size
Conditions: HEK293T ELG1-luciferase reporter, luminescence, 16 h; series mostly up to 46 µM
Outline: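 16 hr compound incubation (37 °C, 5% CO2) of HEK293T cells carrying luciferase-tagged ELG1; luciferase then measured by ONE-Glo luminescence after 30 min at RT.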
Potency means the concentration at half of the fitted maximal effect; tags describe the fitted curve by direction and shape.

Row | Structure (SMILES) | Potency
1 | CCOC(=O)c1ccc(N2Cc3ccccc3C2=N)cc1 | inconclusive: 32.6 µM [activator, partial curve, poor fit]
2 | Nn1c(COc2ccc(Cl)cc2)nc2ccccc2c1=O | inconclusive: 20.6 µM [activator, single point]
3 | O=C(Nc1cccc(/C=C/c2ccccn2)c1)c1cc(Cl)ccn1 | inconclusive: 16.4 µM [activator, single point]
4 | Cc1ccc(-c2onc3ccc(C=O)cc23)cc1 | active: 5.17 µM
5 | NC(=O)C1CCCN(C(=O)c2cccc(NC(=O)c3cccs3)c2)C1 (stereo not given) | inactive
6 | OCc1cc(C(O)CNCCCCCCOCCCCc2ccccc2)ccc1O (stereo not given) | inconclusive: 10.3 µM [activator, partial curve, poor fit]
7 | Cc1ccccc1-c1nc2cc(Cl)ccc2o1 | inconclusive: 18.4 µM [activator, partial curve]
8 | Cc1ccccc1C(=O)O/N=C1\CCS(=O)(=O)c2sccc21 | active: 11.6 µM
9 | CN(C)c1ccc(N=Cc2ccco2)cc1 | inconclusive: 4.11 µM [activator, single point]
10 | O=C(CSc1ccc(-c2ccccc2)nn1)c1ccccc1 | inconclusive: 23.1 µM [activator, partial curve, poor fit]
11 | O=C(NCCCN1CCOCC1)c1cc(-c2cccs2)on1 | inconclusive: 23.1 µM [activator, partial curve, poor fit]
12 | O=C(Cn1c(=O)oc2ccccc21)Nc1nc(-c2ccc(Br)cc2)cs1 | inconclusive: 23.1 µM [activator, single point]
13 | Cc1ccsc1/C=N/Nc1nc(=O)[nH]nc1C | inconclusive: 8.2 µM [activator, partial curve, poor fit]
14 | CCOC(=O)C1CCN(Cc2cc(=O)oc3c(C)c(C)ccc23)CC1 | inactive
15 | CCN(CC)CCN(C(=O)c1cc2c(ccc3ccccc32)oc1=O)c1nc2cc3c(cc2s1)OCCO3 | active: 18.3 µM
16 | O=C(NCc1ccco1)c1c(F)c(F)c(F)c(C(=O)NCc2ccco2)c1F | inactive
17 | COc1cccc(-c2nnc(-c3ccc(C)o3)o2)c1 | inconclusive: 0.651 µM [activator, full curve, poor fit]
18 | COc1cc(C2Nc3ccc4ncccc4c3C3=C2C(=O)CCC3)cc(OC)c1OC (stereo not given) | inconclusive: 20.6 µM [activator, single point]
19 | COc1ccc(S(=O)(=O)NCC2CCCN(Cc3ccccc3Cl)C2)cc1 (stereo not given) | inactive
20 | Cc1[nH]n(-c2ccccc2)c(=O)c1/C=N/NC(=O)c1ccoc1C | inconclusive: 29.1 µM [activator, single point]
21 | COc1cc(C2CC(=O)N(c3ccc(C)cc3)C(=O)C2)cc(OC)c1OC | inconclusive: 29.1 µM [activator, partial curve, poor fit]
22 | Cc1c(C)c2ccc(OCC(=O)N(C)C)c(C)c2oc1=O | inconclusive: 29.1 µM [activator, partial curve, poor fit]
23 | CCc1c(C)[nH]c2ccc(C)cc2c1=O | inconclusive: 32.6 µM [activator, partial curve, poor fit]

Row | Structure (SMILES) | Potency
24 | Cc1c(N=Nc2ccc(N(C)C)cc2)c(=O)n(-c2ccccc2)n1C | inconclusive: 14.6 µM [activator, partial curve]
25 | CCc1ccc(C(=O)NC(=S)Nc2ccc3c(c2)OCCO3)cc1 | inconclusive: 7.31 µM [activator, partial curve]
26 | COc1cc(SC)ccc1C(=O)Nc1ccccc1 | inconclusive: 20.6 µM [activator, partial curve, poor fit]
27 | Cc1ccccc1-n1c(C)cc(/C=N/Nc2ccc([N+](=O)[O-])cn2)c1C | inconclusive: 7.31 µM [activator, partial curve, poor fit]
28 | O=C(Nc1cccc(Cl)c1)c1cnn2cccnc12 | inconclusive: 12.6 µM [activator, partial curve, poor fit]
29 | CCCOc1ccc(NC(=O)CC2C(=O)N(c3ccc(OCC)cc3)C(=S)N2C2CC2)cc1 (stereo not given) | inconclusive: 23.1 µM [activator, single point]
30 | COc1ccc2c(c1OC)C(=O)N(c1nccs1)C2 | active: 18.4 µM
31 | COc1ccc(NC(=O)COC(=O)c2ccc(OC)c(S(=O)(=O)N3CCCC3)c2)cc1OC | inactive
32 | Cc1ccc(NC(=O)NCC2CC2(Cl)Cl)cc1 (stereo not given) | inconclusive: 14.6 µM [activator, partial curve]
33 | COc1ccccc1N/N=C1\COC(C)(C)CC1=O | inconclusive: 29.1 µM [activator, partial curve, poor fit]
34 | Cc1ccc(NC(=O)c2ocnc2C)cc1Cl | inconclusive: 20.6 µM [activator, single point]
35 | O=C(c1cccc(Br)c1)c1coc2ccc(O)cc12 | inconclusive: 5.17 µM [activator, full curve, poor fit]
36 | CN1CCN(C(=O)c2cc3sc4ccccc4c3s2)CC1 | inconclusive: 4.11 µM [activator, full curve]
37 | COc1ccc(C)cc1NC(=O)CSc1nnc(COc2ccccc2)n1Cc1ccco1 | inactive
38 | COc1ccccc1-c1nc(SCc2ccccn2)n[nH]1 | inconclusive: 18.4 µM [activator, single point]
39 | CCOc1cc(CNCCc2ccc(S(N)(=O)=O)cc2)cc(Cl)c1OCc1ccccc1 | inactive
40 | CC(=O)c1cccc(NC(=O)COC(=O)[C@@H](NC(=O)OCc2ccccc2)C(C)C)c1 | inactive
41 | O=S(=O)(c1cccc(-c2n[nH]c(=S)o2)c1)N1CCOCC1 | inactive
42 | CCOc1cccc2cc(-c3cn4cc(C)ccc4n3)c(=O)oc12 | inconclusive: 1.03 µM [activator, full curve]
43 | CN1C(=O)/C(=C/C=C2\SCCN2C)N(C)C1=S | active: 14.6 µM
44 | O=C(COC(=O)CNC(=O)c1ccccc1)Nc1nc(-c2ccccc2)cs1 | inconclusive: 23.1 µM [activator, partial curve, poor fit]
45 | COc1ccc(-n2c(C)cc(/C=C3/SC(=S)N(C)C3=O)c2C)cc1 | active: 10.3 µM
